Measurements reported in PMC4336329 (PLoS ONE, 2015).
Screen size: about 310,000 compounds; about 14,000 (4.5%) showed an effect of 50% or more. The effect is printed as a negative number. Some of the results follow.

What follows are compounds tested against human ether-à-go-go-related gene (hERG) potassium channel (human, UniProt Q12809) (assay: primary screen, population patch clamp on CHO cells stably expressing hERG).
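Further: peak tail current of the secondary pulse compared with the same well before compound.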

human ether-à-go-go-related gene (hERG) potassium channel, sequence (Q12809 whole entry, looked up): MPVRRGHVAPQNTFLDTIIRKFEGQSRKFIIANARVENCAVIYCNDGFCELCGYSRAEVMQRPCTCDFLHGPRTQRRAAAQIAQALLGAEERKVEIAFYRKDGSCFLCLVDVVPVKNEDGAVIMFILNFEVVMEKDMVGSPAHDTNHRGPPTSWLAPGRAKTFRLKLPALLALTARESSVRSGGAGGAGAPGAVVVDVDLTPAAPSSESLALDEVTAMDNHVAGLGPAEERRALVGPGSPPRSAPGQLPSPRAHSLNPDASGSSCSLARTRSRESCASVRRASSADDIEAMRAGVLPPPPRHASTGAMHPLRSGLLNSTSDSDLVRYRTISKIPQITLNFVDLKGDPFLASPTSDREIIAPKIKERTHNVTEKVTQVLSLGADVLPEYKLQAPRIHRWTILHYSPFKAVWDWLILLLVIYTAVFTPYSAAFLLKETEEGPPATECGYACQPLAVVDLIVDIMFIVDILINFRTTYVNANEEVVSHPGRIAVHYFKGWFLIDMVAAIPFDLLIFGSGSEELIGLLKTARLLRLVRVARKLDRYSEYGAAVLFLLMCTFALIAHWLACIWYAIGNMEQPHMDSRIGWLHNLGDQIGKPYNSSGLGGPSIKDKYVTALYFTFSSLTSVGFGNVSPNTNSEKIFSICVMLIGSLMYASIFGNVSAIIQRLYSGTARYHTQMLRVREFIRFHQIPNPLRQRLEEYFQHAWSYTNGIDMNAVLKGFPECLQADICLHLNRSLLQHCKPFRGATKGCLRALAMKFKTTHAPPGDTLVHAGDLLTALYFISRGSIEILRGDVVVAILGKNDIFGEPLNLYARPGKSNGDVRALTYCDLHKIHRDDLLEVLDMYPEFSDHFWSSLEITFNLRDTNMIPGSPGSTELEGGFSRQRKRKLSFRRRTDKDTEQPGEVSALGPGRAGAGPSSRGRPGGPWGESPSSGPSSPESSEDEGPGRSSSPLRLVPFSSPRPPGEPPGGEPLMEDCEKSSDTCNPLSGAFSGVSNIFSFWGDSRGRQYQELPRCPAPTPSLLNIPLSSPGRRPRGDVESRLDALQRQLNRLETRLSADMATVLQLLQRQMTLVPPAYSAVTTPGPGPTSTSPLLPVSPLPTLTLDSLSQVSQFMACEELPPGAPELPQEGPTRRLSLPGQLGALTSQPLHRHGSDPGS

Compound | hERG current change (%, negative = inhibition) at 10uM
O=C(/C=C/c1ccc(Cl)cc1)N(Cc1cccs1)C1CCS(=O)(=O)C1 (stereo not shown) | -72.8%
CCCCn1c(=O)c(-c2ccccc2)c(O)c2ccccc21 | 9.13%
COc1cc([N+](=O)[O-])c(OC)cc1SCc1n[nH]c(=S)n1-c1ccc(F)cc1 | -0.78%
CN(C(=O)c1ccc(NC(=O)Cc2ccc(NC(=O)C3CCN(C(=O)C4CCCCC4)CC3)cc2)cc1)C1CC1 | 8.45%
N#Cc1cc(-c2ccc(Cl)cc2)cnc1Sc1ccc(F)cc1 | 10.6%
CCCCn1nnnc1SCC(=O)Nc1sc2c(c1C#N)CCCC2 | 2.62%
O=C(NCCN1CCN(C(=O)c2cccc(Br)c2)CC1)C(=O)Nc1ccc(Br)cc1 | -42.1%
Cc1ccc(O)c(C(=O)CC(=O)c2ccc(C(C)(C)C)cc2)c1 | 15%
Cc1ccc(Cl)cc1NC(C#N)c1ccccc1 (stereo not shown) | -10%
CC1Cc2nc(SCC(=O)N3CCN(c4ccccc4)CC3)n(CCc3ccccc3)c(=O)c2S1 (stereo not shown) | -47.1%
CCSc1nnc(NC(=O)C2CC=CCC2C(=O)O)s1 (stereo not shown) | 8.96%
CC1CCN(C(c2cc3cc4c(cc3[nH]c2=O)OCO4)c2nnnn2CC2CCCO2)CC1 (stereo not shown) | -3.99%
CN(C)CCOc1ccc2c(c1)Sc1ccccc1CC2=O.Cl | -64.8%
COc1cc2[nH]c(=O)n(CCC(=O)NCc3cccnc3)c(=O)c2cc1OC | 2.55%
O=C(COC(=O)/C=C/c1ccccc1)Nc1ccccc1Br | -10.7%
CN1CCCN(C(=O)CSc2ccccc2)CC1 | 7.75%
COc1cc(/C=N/NC(=O)C(=O)N2CCCCCC2)ccc1O | 7.51%
NNc1nnc2c3cc(F)ccc3n(Cc3ccccc3)c2n1 | -22.4%
Cn1nc(-c2ccc(Cl)cc2)c2cc(C(=O)N3CCCC3)sc21 | -1.15%
C[N+]1(CC(=O)Nc2ccc(F)cc2)CCN(C(=O)c2ccco2)CC1.[Cl-] | 13.2%
CCN(CC(=O)Nc1c(F)cccc1F)C(=O)c1ccc(-c2ccccc2)cc1 | -22.9%
O=C(CSc1nnc(-c2ccc(C(F)(F)F)cn2)s1)c1ccc(Cl)cc1 | 5.3%

Compound | hERG current change (%, negative = inhibition) at 10uM
CCc1ccc(NC(=O)N(CCOC)C2CCN(C(C)=O)CC2)cc1 | -31.2%
O=c1c2ccccc2nc(/C=C/c2ccc(O)cc2)n1-c1cccc(O)c1 | 12.9%
CC(OC(=O)c1cc(S(=O)(=O)N2CCOCC2)ccc1F)C(=O)NCc1ccc2c(c1)OCO2 (stereo not shown) | -24.7%
Cc1ccc(C(=O)N2CC(C(=O)O)C2)cc1 | 11.3%
CC(C)CCNC(=O)[C@@H](NC(=O)c1c(F)cccc1F)C(C)C | 0.718%
O=[N+]([O-])c1ccc(O)c2ncccc12 | 9.28%
COc1ccc(-n2nnc3c(=O)n(CC(=O)N4CCC(Cc5ccccc5)CC4)cnc32)cc1 | 13.8%
COC(=O)c1cnc(Oc2ccc(NC(=O)NC(=O)c3c(F)cccc3F)cc2)cc1C(F)(F)F | 9.34%
COc1ccc(-n2c(C)cc(-c3csc(N)n3)c2C)cc1 | -15.2%
O=C(NCc1ccco1)c1ccc(-c2ccccc2Cl)o1 | -30.6%
COC(=O)N/N=C\c1ccc(OC/C=C/c2ccccc2)c(OC)c1 | 6.04%
Cc1ccc(S(=O)(=O)NCCSc2nnc(N)s2)cc1 | 0.194%
CCN(CC(=O)NCc1cccs1)C(=O)COc1ccc(C(C)=O)cc1 | -45.1%
Nc1c(N=Nc2cccc(Cl)c2)c(=O)[nH]n1-c1ccccc1 | -2.35%
COc1ccc(C(=O)Nc2c(N)nc(SCC(=O)N3CCCCCC3)[nH]c2=O)cc1OC | 0.918%
N#C/C(=N\Nc1cccc(Cl)c1)C(=O)c1ccccc1 | -11.2%
O=C(NN1CCOCC1)c1cccc2ccccc12 | 1.68%
CCCc1ccc2oc(C(=O)N3CCC(O)CC3)c(C)c2c1 | -12.2%
COc1ccc(C(=O)C(O)C(c2ccc(C)cc2)N2CCOCC2)cc1OC (stereo not shown) | 8.95%
COC(=O)c1cc(C(=O)NCC2CCCCC2)cc([N+](=O)[O-])c1 | -18.2%
COc1cc2[nH]c(=O)n(CCC(=O)N3CC=C(c4ccccc4)CC3)c(=O)c2cc1OC | -1%
